In PubChem BioAssay AID2147 (National Center for Advancing Translational Sciences (NCATS), 2009):
Hit rate of the full screen: of about 230,000 compounds, about 3,600 (1.6%) were called active. The shares of active, inactive and inconclusive entries below differ from those in the screen. Calls follow the shape of the dose curve; as a rule, active = well fitted inhibition curve with a large enough effect (not every such curve was filed as active); inconclusive = small, poorly fitted or top-dose-only effect, or another doubt; inactive = no such curve, though single readings can be large or run the other way. A potency beside an inconclusive call is a rough fit, not a confirmed value.

Target: Lysine-specific demethylase 4E (Homo sapiens) (UniProt B2RXH2)
UniProt B2RXH2, sequence (B2RXH2 whole entry, looked up, the tested form may be a part): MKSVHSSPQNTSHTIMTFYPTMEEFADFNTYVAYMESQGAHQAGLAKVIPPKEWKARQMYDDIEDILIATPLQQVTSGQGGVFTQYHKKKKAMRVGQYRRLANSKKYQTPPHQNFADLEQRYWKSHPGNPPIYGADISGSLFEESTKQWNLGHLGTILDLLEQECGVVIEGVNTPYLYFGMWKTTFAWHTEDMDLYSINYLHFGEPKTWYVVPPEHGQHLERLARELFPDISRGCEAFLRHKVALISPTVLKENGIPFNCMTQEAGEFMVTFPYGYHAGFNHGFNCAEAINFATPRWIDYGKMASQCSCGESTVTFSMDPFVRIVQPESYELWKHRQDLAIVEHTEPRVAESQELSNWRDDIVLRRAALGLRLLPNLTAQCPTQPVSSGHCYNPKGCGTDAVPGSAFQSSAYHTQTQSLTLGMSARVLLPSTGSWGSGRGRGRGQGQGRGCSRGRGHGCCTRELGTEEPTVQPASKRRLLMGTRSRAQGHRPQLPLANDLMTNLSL
Test: qHTS Assay for Inhibitors of Human Jumonji Domain Containing 2E (JMJD2E)
Conditions: JMJD2E catalytic domain, FDH-coupled NADH fluorescence (FDH is formaldehyde dehydrogenase); series mostly up to 57.1 µM; activity change, negative = inhibition: at the top concentration
Also: nearly all actives have a fitted effect of over 50% in size.
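For activity change, negative = inhibition in this document: 0% = wells with enzyme and -100% = buffer wells without enzyme.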
Potency is read from the fitted curve at half-maximal effect; tags tell the direction and shape of the fitted curve.

| SMILES | activity change, negative = inhibition | Potency |
| --- | --- | --- |
| Cc1ccc(Cl)c(NC(=O)CN2CCNC(=O)C2)c1Cl | inactive: 11.1% | – |
| Cc1ccc2nc(Cl)c(/C=N/Nc3ccc(C(=O)O)cc3)cc2c1 | inactive: -2.18% | – |
| CC1(C)Cc2c(c(-c3ccco3)nc3sc4c(NCC5CCCO5)ncnc4c23)CO1 (stereo not given) | – | inconclusive: 28.2 µM [inhibitor, partial curve] |
| COc1ccc(C(=O)C(C)Oc2cccc(NC(=O)c3cccc([N+](=O)[O-])c3)c2)cc1 (stereo not given) | inactive: 6.59% | – |
| O=C1CC(Sc2ccc(Cl)cc2)C(=O)N1Cc1ccncc1 (stereo not given) | inactive: -10.2% | – |
| O=C(CSc1ccc(Cl)cc1)N1CCN(c2c(Cl)cccc2[N+](=O)[O-])CC1 | inactive: -0.678% | – |
| O=C(CSc1nnc(-c2ccccc2O)o1)Oc1ccc(OCc2ccccc2)cc1 | – | inconclusive: 28.2 µM [inhibitor, partial curve] |
| CC(C)CC1=C/C(=C/c2ccc(-c3ccccc3)o2)C(=O)O1 | – | inconclusive: 35.5 µM [inhibitor, partial curve] |
| CC[C@H]1C2=C3C(CC[C@H]4C(OCc5ccc(F)cc5C(F)(F)F)OC[C@](C)([C@@H]34)N(C(=O)OC(C)(C)C)C2)C2COC(=O)OCC21 (stereo not given in full) | – | inconclusive: 39.8 µM [inhibitor, single point] |
| CCOC(=O)c1ccc2nc(NC(=O)c3cccs3)sc2c1 | – | inconclusive: 35.5 µM [inhibitor, single point] |
| C=CC(C1=CC(=O)C(OC)=CC1=O)c1ccc(O)cc1 (stereo not given) | – | inconclusive: 12.6 µM [inhibitor, partial curve] |
| O=c1[nH]c(=O)n(Cc2ccccc2)c2nc(-c3cccs3)n(CCO)c12 | – | inconclusive: 3.16 µM [inhibitor, partial curve] |
| Nc1nc(CN2CCN(Cc3ccc4c(c3)OCO4)CC2)nc(Nc2ccccc2)n1 | inactive: -10.2% | – |
| CCOC(=O)C(=Cc1cc(=O)c(OC)co1)C(=O)OCC | inactive: -7.68% | – |
| CC(C)(C)C(=O)Nc1cc(S(=O)(=O)Nc2ccc(Cl)cc2)ccc1Cl | inactive: -25.1% | – |
| CN(C)CCC(c1ccccc1)c1ccccn1 (stereo not given) | – | inconclusive: 11.2 µM [inhibitor, partial curve] |
| O=C(/C=C/c1ccc(Cl)cc1Cl)Nc1cccc(S(=O)(=O)NC2=NCCCCC2)c1 | – | inconclusive: 39.8 µM [inhibitor, single point] |
| CC(C)Oc1cccc(C(=O)NC(=S)Nc2cccc(NC(=O)c3ccccc3Cl)c2)c1 | inactive: -3.22% | – |
| O=C(Cc1cccs1)Nc1ccc(-c2nnc(-c3ccco3)o2)cc1 | – | inconclusive: 3.55 µM [inhibitor, full curve] |
| CCCCc1nc(N2CCOCC2)c(C#N)c2c1COC(C)(C)C2 | – | inconclusive: 22.4 µM [inhibitor, partial curve] |
| CC(=O)Nc1ccc(-c2cc(-c3ccc(NC(C)=O)cc3)nc(-c3ccc(NC(C)=O)cc3)n2)cc1 | – | inconclusive: 31.6 µM [inhibitor, partial curve] |
| O=C(CN1CCN(CC(=O)c2ccc(F)cc2)CC1)Nc1ccccc1Cl | inactive: 0.764% | – |
| C=CCN1C(=O)C(CC(=O)Nc2ccc(OCCC)cc2)N(CCCN2CCN(Cc3ccccc3)CC2)C1=S (stereo not given) | inactive: -8.21% | – |
| COc1ccc(C(=O)/C=C/Nc2ccccn2)c(OC)c1 | – | inconclusive: 14.1 µM [inhibitor, partial curve] |

| SMILES | activity change, negative = inhibition | Potency |
| --- | --- | --- |
| O=C(Nc1ccc2c(c1)nc1n2CCN(Cc2ccccc2)C1)NC1CCCCC1 | – | inconclusive: 2.51 µM [inhibitor, partial curve] |
| COc1ccc(CNC(=O)c2ccc(Cn3nc(C)c([N+](=O)[O-])c3C)o2)cc1 | – | inconclusive: 39.8 µM [inhibitor, single point] |
| NNc1nc2sc3c(c2c(=O)n1-c1ccccc1)CCCC3 | – | inconclusive: 25.1 µM [inhibitor, single point] |
| O=C(Nc1sc2c(c1C(=O)O)CCCCC2)c1cccs1 | inactive: -2.91% | – |
| CSc1ccc(/C=N/NC(=O)c2cccc(O)c2)cc1 | – | inconclusive: 39.8 µM [inhibitor, single point] |
| COc1ccc(CN2CCNC(=O)C2CC(=O)N(Cc2nccn2C)C(C)C)c(OC)c1 (stereo not given) | – | inconclusive: 28.2 µM [inhibitor, single point] |
| CCOc1ccc(-c2nc(C#N)c(N3CCN(CC)CC3)o2)cc1 | – | inconclusive: 35.5 µM [inhibitor, partial curve] |
| Cc1cccc(NS(=O)(=O)c2cc(C(=O)OC(C)C(=O)NCc3ccc4c(c3)OCO4)ccc2C)c1 (stereo not given) | – | inconclusive: 39.8 µM [inhibitor, single point] |
| O=C1NC(=O)C(Nc2cccc3ccccc23)S1 (stereo not given) | – | inconclusive: 25.1 µM [inhibitor, single point] |
| CCOc1ccc(-c2nc(C#N)c(N3CCCCCC3)o2)cc1 | – | inconclusive: 25.1 µM [inhibitor, partial curve] |
| O=C(COS(=O)c1ccccc1)Nc1cc(Cl)ccc1N1CCOCC1 (stereo not given) | – | inconclusive: 0.0282 µM [inhibitor, full curve, poor fit] |
| CCOc1ccc2[nH]c(=O)c(CN(Cc3nnnn3CCc3ccccc3)CC3CCCO3)cc2c1 (stereo not given) | – | inconclusive: 35.5 µM [inhibitor, single point] |
| CS(=O)(=O)c1ccc(Cl)c(NC(=O)Nc2ccccc2)c1 | inactive: 4.04% | – |
| Cc1ccc([N+](=O)[O-])cc1NC(=O)CN1CCCCC1 | inactive: 0.912% | – |
| CCC1Oc2ccc(C)cc2N(CC(=O)N(Cc2ccc(C)o2)C2CCCC2)C1=O (stereo not given) | – | inconclusive: 25.1 µM [inhibitor, single point] |
| C=CCn1c(COc2ccc(CC)cc2)nnc1SCC(=O)N(C)C1CCS(=O)(=O)C1 (stereo not given) | – | inconclusive: 39.8 µM [inhibitor, single point] |
| O=c1[nH]c2c(cnn2-c2ccc(Cl)cc2)c(=O)n1-c1cccc(Cl)c1 | inactive: -3% | – |
| N#CCCN(CCN1CCCC1)S(=O)(=O)c1ccc(-c2ccc([N+](=O)[O-])cc2)cc1 | inactive: -0.403% | – |
| CCc1ccc2[nH]c(=O)c(C(c3nnnn3Cc3ccccc3)N3CCOCC3)cc2c1 (stereo not given) | – | inconclusive: 25.1 µM [inhibitor, single point] |
| NSc1nc(N)c2nc(-c3ccccc3)c(-c3ccccc3)nc2n1 | – | inconclusive: 28.2 µM [inhibitor, partial curve] |
| CCOCc1nnc(NC(=O)c2ccc(NC(C)=O)cc2)s1 | – | inconclusive: 35.5 µM [inhibitor, single point] |
| O=C(Cc1ccc(Br)c2ccccc12)N/N=C/c1ccccn1 | – | inconclusive: 39.8 µM [inhibitor, single point] |
| Cc1ccc(-c2cc(C(=O)NC3=NCCS3)c3cc(Br)ccc3n2)o1 | – | active: 8.91 µM |
| COC(=O)c1sccc1NC(=O)Nc1ccc(Cl)c(Cl)c1 | – | inconclusive: 35.5 µM [inhibitor, single point] |

| SMILES | activity change, negative = inhibition | Potency |
| --- | --- | --- |
| CCOC(=O)c1cnc2c(Cl)cc(Cl)cc2c1NCCOCCO | – | inconclusive: 39.8 µM [inhibitor, single point] |
| CCOC(=O)c1cc2cc(-c3c(C(=O)OCC)oc4cc(O)cc(O)c4c3=O)ccc2o1 | – | inconclusive: 35.5 µM [inhibitor, single point] |
| CC1C(c2ccccc2)=NNc2nc3c(c(=O)n(C)c(=O)n3C)n21 (stereo not given) | – | inconclusive: 20 µM [inhibitor, partial curve] |
| COc1ccc(C(NC(=O)c2ccc(F)cc2)c2ccccc2)cc1 (stereo not given) | inactive: -2.99% | – |
| COC(=O)c1[nH]c2ccccc2c1NC(=O)CCN1CCN(C2CCCCC2)CC1 | – | inconclusive: 39.8 µM [inhibitor, single point] |
| CN(C)CC(=O)c1ccc(-c2ccccc2)cc1 | – | inconclusive: 35.5 µM [inhibitor, single point] |
| CC(C)(C)NC(=O)C(c1ccncc1)N(C(=O)Cn1nnc(-c2ccc(F)cc2)n1)c1ccc(F)cc1 (stereo not given) | inactive: 3.3% | – |
| COc1ccc(OCC(=O)NNC(=O)C(=O)N2CCCC2)cc1 | inactive: -3.82% | – |
| CCC(C)NCC(=O)Nc1ccc(-c2nc3cc(NC(=O)CNC(C)CC)ccc3o2)cc1 (stereo not given) | – | inconclusive: 25.1 µM [inhibitor, partial curve] |
| Cc1ccc2cc(/C=N/NC(=O)[C@H]3C[C@@H]3c3ccccc3)c(Cl)nc2c1 | – | inconclusive: 10 µM [inhibitor, partial curve] |
| COc1cc(C2NC(=O)c3ccccc3O2)cc(OC)c1OC (stereo not given) | – | inconclusive: 22.4 µM [inhibitor, partial curve] |
| Nc1ccc2nc(-c3ccccn3)[nH]c2c1 | – | inconclusive: 39.8 µM [inhibitor, single point] |
| O=C(CC1C(=O)NCCN1C/C=C/c1ccccc1)NCCCC1CCCC1 (stereo not given) | inactive: 0.337% | – |
| CC[C@H](C)C(=O)O[C@H]1CCC=C2C=C[C@H](C)[C@H](CC[C@@H]3C[C@H](O)CC(=O)O3)C21 (stereo not given in full) | inactive: -0.107% | – |
| O=C1COc2ccc(-c3csc(NCCc4ccccc4)n3)cc2N1 | inactive: -26.5% | – |
| CCOC(=O)N1CCN(c2cc(N)c([N+](=O)[O-])cc2F)CC1 | inactive: -6.42% | – |
| O=c1c2ccccc2c(/C=N/c2nnc(Cc3ccccc3)s2)c(O)n1-c1ccc(Cl)cn1 | – | inconclusive: 25.1 µM [inhibitor, partial curve] |
| Cc1ccc2[nH]c(=O)c(CN(CCc3ccccc3)Cc3nnnn3CC3CCCO3)cc2c1 (stereo not given) | – | inconclusive: 39.8 µM [inhibitor, single point] |
| Cc1ccc(CNCc2ccccc2Cl)cc1 | inactive: -1.99% | – |
| CSc1nc(N)nc(SCC(=O)Nc2ccc(Cl)cc2)c1C#N | – | inconclusive: 7.08 µM [inhibitor, single point] |
| Cc1cnc(NC(=O)CSc2ccccc2)s1 | inactive: -1.16% | – |
| CC1=C(C#N)C(c2ccc(O)cc2)C2=C(CCCC2=O)N1 (stereo not given) | – | inconclusive: 31.6 µM [inhibitor, partial curve] |
